# Paper PMC4336329 (PLoS ONE, 2015)
# The campaign covered roughly 310,000 compounds. About 14,000 (4.5%) showed an effect of 50% or more. Effects have a minus sign here. The list shows a part of the results.
# Target: human ether-à-go-go-related gene (hERG) potassium channel (human, UniProt Q12809)
# Experiment: primary screen, population patch clamp on CHO cells stably expressing hERG
# 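Also: peak tail current of the secondary pulse compared with the same well before compound.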
# Sequence of human ether-à-go-go-related gene (hERG) potassium channel (Q12809 whole entry, looked up): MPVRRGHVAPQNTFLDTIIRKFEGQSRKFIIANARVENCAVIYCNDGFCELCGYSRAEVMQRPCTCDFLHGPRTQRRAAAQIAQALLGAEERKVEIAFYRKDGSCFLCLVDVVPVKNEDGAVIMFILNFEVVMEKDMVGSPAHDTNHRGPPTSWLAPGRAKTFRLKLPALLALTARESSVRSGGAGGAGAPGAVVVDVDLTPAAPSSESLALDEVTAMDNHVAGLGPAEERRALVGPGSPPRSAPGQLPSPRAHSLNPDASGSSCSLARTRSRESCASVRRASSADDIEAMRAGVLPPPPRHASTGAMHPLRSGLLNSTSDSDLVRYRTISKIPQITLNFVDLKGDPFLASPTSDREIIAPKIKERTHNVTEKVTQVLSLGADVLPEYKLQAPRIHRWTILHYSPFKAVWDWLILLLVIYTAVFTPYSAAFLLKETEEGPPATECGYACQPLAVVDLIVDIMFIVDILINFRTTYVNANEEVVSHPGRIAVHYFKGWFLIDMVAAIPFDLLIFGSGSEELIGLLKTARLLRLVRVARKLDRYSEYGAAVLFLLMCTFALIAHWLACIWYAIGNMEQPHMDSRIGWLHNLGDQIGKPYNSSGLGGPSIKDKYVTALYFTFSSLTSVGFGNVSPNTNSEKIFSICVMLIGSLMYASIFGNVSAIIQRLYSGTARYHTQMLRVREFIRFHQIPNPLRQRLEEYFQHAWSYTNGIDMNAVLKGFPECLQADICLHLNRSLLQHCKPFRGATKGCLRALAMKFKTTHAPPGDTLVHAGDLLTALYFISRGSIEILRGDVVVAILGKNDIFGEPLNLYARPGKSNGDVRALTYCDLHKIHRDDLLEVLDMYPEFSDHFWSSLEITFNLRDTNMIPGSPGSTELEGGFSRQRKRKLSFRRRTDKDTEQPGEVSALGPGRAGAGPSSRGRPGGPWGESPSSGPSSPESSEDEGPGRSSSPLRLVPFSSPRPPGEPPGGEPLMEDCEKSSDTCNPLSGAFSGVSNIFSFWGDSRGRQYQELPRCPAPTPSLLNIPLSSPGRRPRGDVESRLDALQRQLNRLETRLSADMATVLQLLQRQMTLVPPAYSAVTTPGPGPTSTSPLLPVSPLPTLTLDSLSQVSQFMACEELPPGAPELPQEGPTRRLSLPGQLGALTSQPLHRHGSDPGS
row,SMILES,"hERG current change (%, negative = inhibition) at 10uM [%]"
1,Cc1ccc(CS/C(Nc2ccccc2C)=C(\C#N)C(=O)NCc2ccco2)c(C)c1,9.03
2,CCn1c2ccccc2c2cc(NC(=O)COC(=O)C3CCC(=O)N3)ccc21 (stereo not drawn),3.79
3,COc1ccc(CCNc2nc3ccccc3n3cnnc23)cc1OC,10
4,CCOC(=O)N1CCN(C(=O)C2CCN(S(=O)(=O)c3ccccc3)CC2)CC1,-17.4
5,O=C(CCc1nnc2n(Cc3ccc(F)cc3)c(=O)c3ccccc3n12)NCCN1CCOCC1,-20.3
6,C/C(=N\NC(=O)c1cccc([N+](=O)[O-])c1)c1cccnc1,0.782
7,CCCCCCSc1ccc([C@H]2N[C@@](Cc3ccccc3)(C(=O)OC)[C@H]3C(=O)N(CC)C(=O)[C@@H]23)cc1.O=C(O)C(F)(F)F,-0.79
8,Cc1ccccc1OCC(=O)N1CCN(C(=O)COc2ccccc2C)CC1,4.74
9,Nc1nc(NC(=O)CCC(=O)O)nn1-c1ccccc1,9.86
10,CCn1nnc2cc(C(=O)Nc3cccc(S(=O)(=O)N(C)C)c3)ccc21,-20.3
11,CCOC(=O)Nc1ccc(S(=O)(=O)NC2CCCCC2)cc1,9.96
12,COc1cccc(CN(C)C(=O)Cc2ccc(OC)c(S(=O)(=O)N3CCOCC3)c2)c1,-4.35
13,O=C(CN1CCN(c2ccccc2)CC1)Nc1nccs1,5.11
14,CC(=O)NNC(=O)CC(=O)Nc1nc(C23CC4CC(CC(C4)C2)C3)cs1,31.4
15,CC(=O)Nc1cccc(Oc2ncnc3scc(-c4ccccc4)c23)c1,-4.72
16,Cc1ccc2c(c1)c1ncn(CCC3=CCCCC3)c(=O)c1n2C,9.5
17,CC(=O)N(C)c1ccc(NC(=O)Nc2ccccc2C)cc1,20.1
18,O=C(Nc1nnc(SCc2ccccc2)s1)c1cc2c(s1)CCCC2,2.66
19,Cc1ccc(F)c(CNC(=O)C2CCC(=O)N(CCN3CCOCC3)C2)c1F (stereo not drawn),12
20,O=C(NCCc1csc(-c2ccccc2)n1)c1cccs1,-18.4
21,C=CCn1c(COc2ccc(Cl)cc2)nnc1SCC(=O)c1c(N)n(C)c(=O)n(C)c1=O,12.5
22,Cc1cc(C)n2nc(SCC(=O)N(C(C)C)C(C)C)nc2n1,12.7
23,CCn1nc(C(C)C(=O)O)c2ccccc2c1=O (stereo not drawn),29.7
24,COc1ccc(C(=O)/C=C/C(=O)N(Cc2ccc(F)cc2)C(C(=O)NC2CCCCC2)c2ccncc2)c(O)c1 (stereo not drawn),-5.4
25,Cn1cc(C=O)c2ccccc21,19
26,O=C(COc1cccc2c1CCN(Cc1ccc(Br)cc1)C2=O)N1CCOCC1,-58.4
27,O=c1cc(/C=C/c2c(F)cccc2Cl)[nH]c2ccccc12,6.32

row,SMILES,"hERG current change (%, negative = inhibition) at 10uM [%]"
1,Cc1cc(O)c(C(C)C)cc1N=Cc1cc([N+](=O)[O-])ccc1O,0.22
2,N#Cc1c(-c2ccccc2)cc(C2CC2)nc1N,4.2
3,COc1ccc(-c2oc3ncn4nc(Cc5ccccc5)nc4c3c2-c2ccc(OC)cc2)cc1,0.425
4,N#CC1=C(N)C(C#N)(C#N)C(c2ccc[nH]2)C2CCCC=C12 (stereo not drawn),-2.16
5,CCN(CC(=O)Nc1ccccc1OC)C(=O)CCOc1ccc(C(C)(C)C)cc1,-27.4
6,CC(=O)Nc1nc2ccc(S(=O)(=O)N3CCCCC3)cc2s1,11.4
7,CC1(C)CC2(CC(C)(C)NC(=O)N2)NC(=O)N1,9.38
8,CC1CCN(c2ccc(C(=O)O)cc2NS(=O)(=O)c2ccc(Br)cc2)CC1,-4.27
9,CSCCC(NC(=O)c1ccc(Cl)cc1)C(=O)OCC(C)=O (stereo not drawn),51.9
10,Cc1cc(NC(=O)CCSc2nc(-c3ccco3)cc(C(F)(F)F)n2)n(-c2ccccc2)n1,-12.3
11,COc1ccccc1-n1cc(-c2ccc(C)cc2)[nH]c1=S,14.2
12,c1cc(Nc2ncnc3sccc23)cc(-c2nnc3n2CCCCC3)c1,-19.7
13,CN(CCc1ccccc1)Cc1ccccc1[N+](=O)[O-],-24.1
14,COc1ccc(OCC(O)Cn2cnc(-c3ccc(Br)cc3)c2)cc1 (stereo not drawn),11
15,O=C(Nc1ccc(S(=O)(=O)N2CCOCC2)cc1)C1CCN(S(=O)(=O)c2ccccc2)CC1,-20.8
16,O=C(COc1ccc(S(=O)(=O)N2CCOCC2)cc1)NC1CC1,16.9
17,O=S(=O)(NCc1csc(-c2cccs2)n1)c1ccccc1,4.27
18,O=C(NNc1c(Cl)cc(Cl)cc1Cl)c1cccc([N+](=O)[O-])c1,13.2
19,O=C(CCNC(=O)c1ccccc1Cl)Nc1nc2ccc(F)cc2s1,-10.4
20,COc1ccc(NC(=O)/C(C#N)=C/c2cc(C)n(-c3ccc(N4CCOCC4)c([N+](=O)[O-])c3)c2C)cc1,-5.12
21,O=C(Nc1nnc(SCCC2OCCO2)s1)C1CC(=O)N(c2ccc(F)cc2)C1 (stereo not drawn),-0.557
22,Cc1cc(C)cc(Oc2nc(-c3ccccc3)cc(C)c2S(C)(=O)=O)c1,-1.22
23,O=C(COc1ccccc1)N1CCN(C(=O)Cc2ccccc2)CC1,-1.51
24,Cc1ccc(C(=O)NCc2ccccc2CN2CCCC2)cc1S(=O)(=O)N1CCOCC1,-61.4
25,CC(=O)NCC(=O)NC1CCCc2c1cnn2-c1ccccc1F (stereo not drawn),19.4
26,O=C(COC(=O)c1cc[n+]([O-])cc1)Nc1ccc([N+](=O)[O-])cc1,11.8
27,C/C=C\C=C\C(=O)Nc1cccc(C2=NOC3(C2)C[C@H](C(N)=O)N(C(=O)c2ccccc2C(=O)c2ccccc2)C3)c1 (stereo partly drawn),-21.5
